# Assay results reported in the supplement of paper PMC8728848.
# The list shows a part of the results.
# Assays:
# Assay in all cases: glycan array binding signal (z-score within array); higher = stronger binding
# Settings in all cases: glycan notation: IUPAC condensed, linker removed
# GlcA(b1-6)Gal = molecular target: GlcA(b1-6)Gal
# Outline: (§1)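 The Consortium for Functional Glycomics database supplied 3228 glycan arrays, of which those lacking an available protein sequence were dropped. The binding signal, a within-array Z-score, was averaged across arrays of the same protein sequence and across linkers. Negative scores can be read as non-binding.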
# [1] = molecular target: GlcA3S(b1-3)Gal(b1-4)GlcNAc(b1-2)Man
# Outline: as §1
# [2] = molecular target: GlcA3S(b1-3)Gal(b1-4)GlcNAc(b1-3)Gal(b1-4)Glc
# Outline: as §1
# [3] = molecular target: GlcNAc(a1-3)Gal(b1-4)GlcNAc
# Outline: as §1
# [4] = molecular target: GlcNAc(a1-4)Gal(b1-3)GlcNAc
# Outline: as §1
# [5] = molecular target: GlcNAc(a1-4)Gal(b1-4)GalNAc
# Outline: as §1
# [6] = molecular target: GlcNAc(a1-4)Gal(b1-4)GlcNAc
# Outline: as §1
# [7] = molecular target: GlcNAc(a1-4)Gal(b1-4)GlcNAc(b1-3)Gal(b1-4)Glc
# Outline: as §1
# [8] = molecular target: GlcNAc(a1-4)Gal(b1-4)GlcNAc(b1-3)Gal(b1-4)GlcNAc
# Outline: as §1
# [9] = molecular target: GlcNAc(a1-4)Gal(b1-4)GlcNAc(b1-3)Gal(b1-4)GlcNAc(b1-3)Gal(b1-4)GlcNAc
# Outline: as §1
# [10] = molecular target: GlcNAc(a1-4)Gal(b1-4)GlcNAc(b1-3)Gal(b1-4)[Fuc(a1-3)]GlcNAc(b1-3)Gal(b1-4)[Fuc(a1-3)]GlcNAc
# Outline: as §1
# [11] = molecular target: GlcNAc(a1-6)Gal(b1-4)GlcNAc
# Outline: as §1
# [12] = molecular target: GlcNAc(b1-2)Gal(b1-3)GalNAc
# Outline: as §1
# [13] = molecular target: GlcNAc(b1-2)Man(a1-3)[GlcNAc(b1-2)Man(a1-6)]Man(b1-4)GlcNAc(b1-4)GlcNAc
# Outline: as §1
# [14] = molecular target: GlcNAc(b1-2)Man(a1-3)[GlcNAc(b1-2)Man(a1-6)]Man(b1-4)GlcNAc(b1-4)[Fuc(a1-6)]GlcNAc
# Outline: as §1
# [15] = molecular target: GlcNAc(b1-2)Man(a1-3)[GlcNAc(b1-4)][GlcNAc(b1-2)Man(a1-6)]Man(b1-4)GlcNAc(b1-4)GlcNAc
# Outline: as §1
# [16] = molecular target: GlcNAc(b1-2)Man(a1-3)[GlcNAc(b1-4)][GlcNAc(b1-2)Man(a1-6)]Man(b1-4)GlcNAc(b1-4)[Fuc(a1-6)]GlcNAc
# Outline: as §1
# [17] = molecular target: GlcNAc(b1-2)[GlcNAc(b1-4)]Man(a1-3)[GlcNAc(b1-2)Man(a1-6)]Man(b1-4)GlcNAc(b1-4)GlcNAc
# Outline: as §1
# [18] = molecular target: GlcNAc(b1-2)[GlcNAc(b1-4)]Man(a1-3)[GlcNAc(b1-4)][GlcNAc(b1-2)Man(a1-6)]Man(b1-4)GlcNAc(b1-4)GlcNAc
# Outline: as §1
# [19] = molecular target: GlcNAc(b1-2)[GlcNAc(b1-4)]Man(a1-3)[GlcNAc(b1-4)][GlcNAc(b1-2)[GlcNAc(b1-6)]Man(a1-6)]Man(b1-4)GlcNAc(b1-4)GlcNAc
# Outline: as §1
# [20] = molecular target: GlcNAc(b1-2)[GlcNAc(b1-4)]Man(a1-3)[GlcNAc(b1-4)][GlcNAc(b1-2)[GlcNAc(b1-6)]Man(a1-6)]Man(b1-4)GlcNAc(b1-4)[Fuc(a1-6)]GlcNAc
# Outline: as §1
# [21] = molecular target: GlcNAc(b1-2)[GlcNAc(b1-6)]Man(a1-6)[GlcNAc(b1-2)Man(a1-3)]Man(b1-4)GlcNAc(b1-4)GlcNAc
# Outline: as §1
# [22] = molecular target: GlcNAc(b1-2)[GlcNAc(b1-6)]Man(a1-6)[GlcNAc(b1-2)Man(a1-3)]Man(b1-4)GlcNAc(b1-4)[Fuc(a1-6)]GlcNAc
# Outline: as §1
# [23] = molecular target: GlcNAc(b1-2)[GlcNAc(b1-6)]Man(a1-6)[GlcNAc(b1-2)Man(a1-3)][GlcNAc(b1-4)]Man(b1-4)GlcNAc(b1-4)GlcNAc
# Outline: as §1
# [24] = molecular target: GlcNAc(b1-2)[GlcNAc(b1-6)]Man(a1-6)[GlcNAc(b1-4)][GlcNAc(b1-2)Man(a1-3)]Man(b1-4)GlcNAc(b1-4)GlcNAc
# Outline: as §1
# GlcNAc(b1-3)Fuc = molecular target: GlcNAc(b1-3)Fuc
# Outline: as §1
# GlcNAc(b1-3)Gal = molecular target: GlcNAc(b1-3)Gal
# Outline: as §1
# [25] = molecular target: GlcNAc(b1-3)Gal(b1-3)GalNAc
# Outline: as §1
# GlcNAc(b1-3)Gal(b1-4)Glc = molecular target: GlcNAc(b1-3)Gal(b1-4)Glc
# Outline: as §1
# [26] = molecular target: GlcNAc(b1-3)Gal(b1-4)GlcNAc
# Outline: as §1
# [27] = molecular target: GlcNAc(b1-3)Gal(b1-4)GlcNAc(b1-2)Man(a1-3)[GlcNAc(b1-3)Gal(b1-4)GlcNAc(b1-2)Man(a1-6)]Man(b1-4)GlcNAc(b1-4)GlcNAc
# Outline: as §1
# [28] = molecular target: GlcNAc(b1-3)Gal(b1-4)GlcNAc(b1-2)Man(a1-3)[GlcNAc(b1-3)Gal(b1-4)GlcNAc(b1-2)Man(a1-6)]Man(b1-4)GlcNAc(b1-4)[Fuc(a1-6)]GlcNAc
# Outline: as §1
# [29] = molecular target: GlcNAc(b1-3)Gal(b1-4)GlcNAc(b1-2)[GlcNAc(b1-3)Gal(b1-4)GlcNAc(b1-6)]Man(a1-6)[GlcNAc(b1-3)Gal(b1-4)GlcNAc(b1-2)Man(a1-3)]Man(b1-4)GlcNAc(b1-4)GlcNAc
# Outline: as §1
# [30] = molecular target: GlcNAc(b1-3)Gal(b1-4)GlcNAc(b1-3)Gal(b1-4)GlcNAc
# Outline: as §1
# [31] = molecular target: GlcNAc(b1-3)Gal(b1-4)GlcNAc(b1-3)Gal(b1-4)GlcNAc(b1-2)Man(a1-3)[GlcNAc(b1-3)Gal(b1-4)GlcNAc(b1-3)Gal(b1-4)GlcNAc(b1-2)Man(a1-6)]Man(b1-4)GlcNAc(b1-4)GlcNAc
# Outline: as §1
# [32] = molecular target: GlcNAc(b1-3)Gal(b1-4)GlcNAc(b1-3)Gal(b1-4)GlcNAc(b1-2)Man(a1-3)[GlcNAc(b1-3)Gal(b1-4)GlcNAc(b1-3)Gal(b1-4)GlcNAc(b1-2)Man(a1-6)]Man(b1-4)GlcNAc(b1-4)[Fuc(a1-6)]GlcNAc
# Outline: as §1
# [33] = molecular target: GlcNAc(b1-3)Gal(b1-4)GlcNAc(b1-3)Gal(b1-4)GlcNAc(b1-2)[GlcNAc(b1-3)Gal(b1-4)GlcNAc(b1-3)Gal(b1-4)GlcNAc(b1-6)]Man(a1-6)[GlcNAc(b1-3)Gal(b1-4)GlcNAc(b1-3)Gal(b1-4)GlcNAc(b1-2)Man(a1-3)]Man(b1-4)GlcNAc(b1-4)[Fuc(a1-6)]GlcNAc
# Outline: as §1
binder,measurement,setting,value
"Gal 9 (Homo sapiens), O00182 (protein) MAFSGSQAPYLSPAVPFSGTIQGGLQDGLQITVNGTVLSSSGTRFAVNFQTGFSGNDIAFHFNPRFEDGGYVVCNTRQNGSWGPEERKTHMPFQKGMPFDLCFLVQSSDFKVMVNGILFVQYFHRVPFHRVDTISVNGSVQLSYISFQNPRTVPVQPAFSTVPFSQPVCFPPRPRGRRQKPPGVWPANPAPITQTVIHTVQSAPGQMFSTPAIPPMMYPHPAYPMPFITTILGGLYPSKSILLSGTVLPSAQRFHINLCSGNHIAFHLNPRFDENAVVRNTQIDNSWGSEERSLPRKMPFVRGQSFSVWILCEAHCLKVAVDGQHLFEYYHRLRNLPTINRLEVGGDIQLTHVQT",glycan array binding signal (z-score),GlcA(b1-6)Gal,-0.322
same,glycan array binding signal (z-score),[1],-0.285
same,glycan array binding signal (z-score),[2],0.712
same,glycan array binding signal (z-score),[3],-0.313
same,glycan array binding signal (z-score),[4],-0.316
same,glycan array binding signal (z-score),[5],-0.33
same,glycan array binding signal (z-score),[6],-0.313
same,glycan array binding signal (z-score),[7],0.089
same,glycan array binding signal (z-score),[8],-0.267
same,glycan array binding signal (z-score),[9],0.561
same,glycan array binding signal (z-score),[10],-0.275
same,glycan array binding signal (z-score),[11],-0.312
same,glycan array binding signal (z-score),[12],-0.328
same,glycan array binding signal (z-score),[13],-0.322
same,glycan array binding signal (z-score),[14],-0.312
same,glycan array binding signal (z-score),[15],-0.318
same,glycan array binding signal (z-score),[16],-0.293
same,glycan array binding signal (z-score),[17],-0.323
same,glycan array binding signal (z-score),[18],-0.314
same,glycan array binding signal (z-score),[19],-0.32
same,glycan array binding signal (z-score),[20],-0.267
same,glycan array binding signal (z-score),[21],-0.324
same,glycan array binding signal (z-score),[22],-0.277
same,glycan array binding signal (z-score),[23],-0.329
same,glycan array binding signal (z-score),[24],-0.268
same,glycan array binding signal (z-score),GlcNAc(b1-3)Fuc,-0.282
same,glycan array binding signal (z-score),GlcNAc(b1-3)Gal,-0.323
same,glycan array binding signal (z-score),[25],-0.271
same,glycan array binding signal (z-score),GlcNAc(b1-3)Gal(b1-4)Glc,0.028
same,glycan array binding signal (z-score),[26],-0.313
same,glycan array binding signal (z-score),[27],-0.006
same,glycan array binding signal (z-score),[28],-0.004
same,glycan array binding signal (z-score),[29],0.976
same,glycan array binding signal (z-score),[30],0.337
same,glycan array binding signal (z-score),[31],0.688
same,glycan array binding signal (z-score),[32],0.183
same,glycan array binding signal (z-score),[33],2.6
